Experimental data as given in PubChem BioAssay AID894 (National Center for Advancing Translational Sciences (NCATS), 2007).
Values joined by “and” are separate entries in the source; they are usually repeats but may differ in a detail not shown here. Identical values can stand only once. The whole screen tested about 150,000 compounds, of which about 6,500 (4.3%) were called active. The shares of active, inactive and inconclusive entries below differ from those in the screen. Calls come from the whole dose curve; as a rule, active = well fitted inhibition curve with a large enough effect (not every such curve was filed as active); inconclusive = small, poorly fitted or top-dose-only effect, or another doubt; inactive = no such curve, though single readings can be large or run the other way. A potency beside an inconclusive call is a rough fit, not a confirmed value.

Biological target: 15-hydroxyprostaglandin dehydrogenase [NAD(+)] (Homo sapiens) (UniProt P15428)
UniProt P15428, sequence (P15428 whole entry, looked up): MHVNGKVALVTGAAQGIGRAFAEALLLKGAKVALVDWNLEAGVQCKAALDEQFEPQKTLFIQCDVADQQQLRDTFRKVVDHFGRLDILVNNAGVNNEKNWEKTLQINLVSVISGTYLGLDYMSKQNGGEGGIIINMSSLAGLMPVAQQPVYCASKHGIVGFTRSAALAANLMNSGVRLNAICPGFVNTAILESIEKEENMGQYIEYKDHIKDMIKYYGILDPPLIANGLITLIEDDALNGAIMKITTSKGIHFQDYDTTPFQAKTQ
Assay: qHTS Assay for Inhibitors of HPGD (15-Hydroxyprostaglandin Dehydrogenase)
Conditions: purified HPGD, NADH fluorescence kinetic, PGE2 substrate; activity change, negative = inhibition: stronger effect = lower value
Summary of the method: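 20 nM HPGD preincubated 15 min at room temperature with compound in 50 mM Tris-HCl pH 8, 0.01% Tween 20. Started with 1 mM NAD+ and 30 uM prostaglandin E2; NADH fluorescence (360/450 nm) read 5 times over 30-s intervals, last minus first.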
% is set by controls: 0 for no effect and ±100 for the full control effect; potency is the fitted concentration of half-maximal effect; tags give direction and shape of the fitted curve.

Activity change, negative = inhibition, inactive:
Cc1ccccc1OCC(=O)NCCN(C)C -10.4%
O=C(Cn1c(NCCO)nc2ccccc21)c1ccco1 -6.35%
COc1ccccc1NS(=O)(=O)c1cccc(N=C2N=C(N)c3ccccc32)c1 -14.1%
CNC(=O)c1nc(C)n(-c2cc(Cl)ccc2Cl)n1 -21.5%
Cc1ccc(NS(=O)(=O)c2cccc(C(=O)O)c2)cc1S(=O)(=O)N1CCOCC1 -6.74%
Cc1ccc2cc(C3C(C#N)=C(N)Oc4c3ccc3cccnc43)c(=O)[nH]c2c1 (stereo not given) -25.6%
Cc1nc2ccccc2c(=O)n1/N=C/c1ccc(N(C)C)cc1 -6.23%
Cc1ccc2c(c1)N(CCC(=O)NCc1cccnc1)C(=O)CO2 -4.11%
CC(C)(C)NC(=O)COC(=O)c1cc(S(=O)(=O)N2CCCCC2)ccc1N1CCOCC1 -9.41%
COC(=O)NC(c1ccccc1)c1c[nH]c2ccccc12 (stereo not given) -5.1%
CC1(C(=O)O)C=CCN1C(=O)c1ccccc1 (stereo not given) -8.06% and -3.58%
CCC(=O)N(CCC(c1ccco1)c1ccccc1OC)Cc1cccs1 (stereo not given) -15.6%
O=C1c2cc([N+](=O)[O-])ccc2-c2ccc3c4ccc5c6c(ccc(c7ccc1c2c73)c64)C(=O)c1cc([N+](=O)[O-])ccc1-5 -15.3%
O=C(O)CCCC[C@@H]1SC[C@H]2NC(=O)N[C@@H]12 4.38%

Potency, inconclusive:
COC(=O)c1ccc2nc(Nc3nc4c(F)cc(F)cc4s3)sc2c1 14.1 µM [inhibitor, partial curve]
COc1ccc(CCNC(=O)CC2Nc3ccccc3NC2=O)cc1 (stereo not given) 31.6 µM [inhibitor, partial curve]
COc1cc(O)c2c(=O)c3c(OC)c(O)ccc3oc2c1 14.1 µM [inhibitor, partial curve]
O=C1NC(=S)N/C1=C/c1cc([N+](=O)[O-])ccc1O 15.8 µM [inhibitor, partial curve]
COc1ccccc1N(C(=O)c1snc(C(N)=O)c1N)C(C(=O)NCCC(C)C)c1ccco1 (stereo not given) 31.6 µM [inhibitor, partial curve]
O=C(CCCn1c(=S)[nH]c2ccccc2c1=O)N1CCN(c2cccc(Cl)c2)CC1 31.6 µM [inhibitor, partial curve]
COC(=O)c1ccc(COc2ccccc2/C=C(\C#N)C(=O)NC(C)C)cc1 39.8 µM [inhibitor, single point]
O=C(c1ccncc1)N1CCC2(CC1)CCN(c1ccccn1)CC2 31.6 µM [inhibitor, partial curve]
Cc1ccn2c(NCc3ccc4c(c3)OCO4)c(-c3ccc(O)cc3)nc2c1 15.8 µM [inhibitor, partial curve]
CC1Cc2ccccc2N1c1nc(C2CC2)nc2c1nnn2Cc1ccccc1 (stereo not given) 35.5 µM [inhibitor, partial curve]
Cc1c(C)c2cc(Cl)c(O)c(CN3CCCC(C)C3)c2oc1=O (stereo not given) 0.562 µM [inhibitor, partial curve, poor fit]
COc1ccc(C(=O)Nc2ccccc2C(=O)NC(Cc2ccc(O)cc2)C(=O)NNC(=O)c2ccccc2)cc1 (stereo not given) 39.8 µM [inhibitor, single point]
CCc1nc(SCC(=O)N2CCN(c3ccccc3)CC2)c2oc3ccccc3c2n1 31.6 µM [inhibitor, partial curve]
CCCn1c(=O)c2c(C(F)(F)F)cc(-c3cccs3)nc2n(CCC)c1=O 15.8 µM [inhibitor, partial curve]
Cc1ccc(NS(=O)(=O)c2cc(NC(=O)c3cc4c(s3)CCCC4)ccc2C)c(C)c1 39.8 µM [inhibitor, single point]
O=c1oc2ccc3ccccc3c2cc1-c1nnc(-c2ccccc2)o1 1.58 µM [inhibitor, partial curve]
O=C1NC(c2ccco2)Nc2sc3c(c21)CCN(Cc1ccccc1)C3 (stereo not given) 31.6 µM [inhibitor, partial curve]
COc1ccc(OC)c(C2C3CN(C(C)C)CC=C3C(C#N)=C(N)C2(C#N)C#N)c1 (stereo not given) 31.6 µM [inhibitor, partial curve]
Cc1nc(SCc2ccc(Br)cc2)[nH]c(=O)c1C 17.8 µM [inhibitor, single point]
O=C(c1cc2c(=O)n3ccccc3nc2s1)N1CCOCC1 25.1 µM [inhibitor, partial curve]
Cc1ccc(C)c(N2CCN(C(=O)CSc3ccsc3[N+](=O)[O-])CC2)c1 31.6 µM [inhibitor, single point]
C[C@H]1C(c2ccc(F)cc2)=NN(c2ccccc2)[C@@H]1CO 31.6 µM [inhibitor, partial curve]
Cc1cccc(-c2cc3nc(C)cc(N4CC(C)CC(C)C4)n3n2)c1 (stereo not given) 28.2 µM [inhibitor, partial curve]
CCOc1ccc(-c2nnc(-c3ccco3)o2)cc1 35.5 µM [inhibitor, partial curve]
Cc1c(C(=O)OC(C)C)sc2nc[nH]c(=O)c12 20 µM [inhibitor, partial curve]
Cc1ccc(NC(=S)NNc2ccc([N+](=O)[O-])cc2S(=O)(=O)Nc2ccccc2C(=O)O)cc1C 31.6 µM [inhibitor, partial curve]
O=C(O)COc1ccc2nsnc2c1Cl 31.6 µM [inhibitor, partial curve]
C1=C(N2CCOCC2)/C(=C/c2nc3ccccc3[nH]2)CC1 31.6 µM [inhibitor, partial curve]
CCOc1cccc(C(=O)Nc2cccc(-c3nnc(-c4ccc(C)cc4)o3)c2)c1 31.6 µM [inhibitor, partial curve]
Cc1ccc(C)c(N2CCN(C(=O)c3ccc4nc(-c5ccco5)c(-c5ccco5)nc4c3)CC2)c1 11.2 µM [inhibitor, partial curve]
CCOCCCNC(=S)N(Cc1ccccc1)Cc1nc2ccccc2c(=O)[nH]1 28.2 µM [inhibitor, partial curve]
COc1ccc(C(=O)CSc2nnc(CNc3ccc(C)cc3C)n2Cc2ccco2)cc1 17.8 µM [inhibitor, partial curve]
Cc1ccc(NC(=O)c2c(O)c3ccccc3n(C)c2=O)nc1 15.8 µM [inhibitor, partial curve]
O=C(Nc1ccc2c(c1)C(=O)N(CC1CCCO1)C2=O)c1cccc(Br)c1 (stereo not given) 31.6 µM [inhibitor, partial curve]
CCn1c(SCC(=O)Nc2nc(C)c(C)s2)nc2cccnc21 11.2 µM [inhibitor, partial curve, poor fit]
CCOc1ccc(N2C(=O)CC(Sc3nc(-c4cccs4)cc(C(F)(F)F)c3C#N)C2=O)cc1 (stereo not given) 4.47 µM [inhibitor, partial curve]
O=C(O)CC1(Cc2nc(-c3cccs3)no2)CCCC1 12.6 µM [inhibitor, partial curve]
c1cnc(SCCOc2cccc3ccccc23)nc1 0.199 µM [inhibitor, full curve, poor fit]
O=C1CC(c2cccc(Br)c2)C2=C(CCCC2=O)N1 (stereo not given) 28.2 µM [inhibitor, partial curve]
O=C(Nc1ccc(-c2nc3ccccc3s2)c(OC(=O)c2ccccc2)c1)c1ccccc1 28.2 µM [inhibitor, single point]

Potency, active:
COCCNC(=O)c1ccc2c(c1)nc(C)n2-c1cc(OC)c(OC)c(OC)c1 14.1 µM
O=C(NCC1CCCO1)c1sc(=S)n2c1[nH]c(=O)c1ccc(C(=O)N3CCCCC3)cc12 (stereo not given) 0.447 µM
O=C(c1ccccc1)N1CCN(C(=S)NCc2ccc3c(c2)OCO3)CC1 31.6 µM
O=C(Nc1ccc(Oc2ccc(NC(=O)C3CCCO3)cc2)cc1)C1CCCO1 (stereo not given) 1.41 µM
Cc1ccc(C(=O)Nc2cccc(Oc3ccccc3)c2)o1 20 µM
COc1ccc(C(CC(=O)NCc2ccccc2)Sc2n[nH]c(-c3ccccc3)n2)cc1 (stereo not given) 7.94 µM
O=C(O)c1ccc(C(=O)c2ccc3c(c2)C(=O)N(Cc2ccco2)C3=O)cc1 8.91 µM
COc1ccc(OC)c(C(=O)c2ccc(C(=O)N3CCCCC3)cc2)c1 0.251 µM
O=C(NCc1ccco1)c1ccc(N2CCCC2=O)cc1 25.1 µM
CN(C)c1nc(N2CCN(c3ccccc3)CC2)c(C#N)c(=O)o1 15.8 µM
O=c1[nH]c(/C(Cl)=C/c2cc(Cl)ccc2O)nc2cc(Cl)ccc12 8.91 µM
CCOc1ccc(C(=O)NCC2CCCO2)cc1 (stereo not given) 15.8 µM
Cc1cc(C)n(C(=O)CNC(=O)CCc2ccccc2)n1 15.8 µM
CC(C)(C)c1nnc2sc(SCC(=O)c3ccc(Cl)cc3)nn2c1=O 28.2 µM
O=C(CSc1nc2cc(Cl)ccc2s1)c1ccco1 22.4 µM
Cn1c(=O)c([N+](=O)[O-])c(NCCc2ccccc2)c2ccccc21 15.8 µM
